This note sets out measurements from article PMC7613676.

Results are given in words; binding and its absence hold for the method and conditions named. Binding seen in cells or lysates may run through a third protein. Some entries that bind do so weakly or less than the wild type. Tags and fused reporters may be left off the sequences shown.

Assay in all cases: co-IP; HA immunoprecipitation from 1 mg lysate of transfected Rlim-/y mESCs, overnight at 4 °C; beads washed with lysis buffer containing 500 mM NaCl; immunoblot for FLAG and HA
(Immunoblotting shows a protein as a band on a membrane.)

Assay [1] deals with T1, HA-mRNF12 Δ326-423 (ΔBR) (mouse) (UniProt Q9WTV7).
T1 sequence: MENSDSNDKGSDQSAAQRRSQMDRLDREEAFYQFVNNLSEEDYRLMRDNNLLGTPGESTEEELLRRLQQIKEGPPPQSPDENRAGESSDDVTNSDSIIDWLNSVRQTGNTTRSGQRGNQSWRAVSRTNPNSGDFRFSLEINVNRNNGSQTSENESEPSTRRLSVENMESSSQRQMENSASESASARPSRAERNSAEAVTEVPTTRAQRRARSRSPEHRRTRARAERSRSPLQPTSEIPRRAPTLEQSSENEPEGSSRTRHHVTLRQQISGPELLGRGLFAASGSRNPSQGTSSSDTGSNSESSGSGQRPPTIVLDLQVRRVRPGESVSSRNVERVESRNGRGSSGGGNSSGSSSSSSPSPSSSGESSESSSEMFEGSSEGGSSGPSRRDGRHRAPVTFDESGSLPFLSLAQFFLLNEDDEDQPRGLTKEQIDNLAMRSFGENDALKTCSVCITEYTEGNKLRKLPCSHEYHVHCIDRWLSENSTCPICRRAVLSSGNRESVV

Assay [2] addresses T2, HA-mRNF12 Δ546-587 (ΔRING) (mouse) (UniProt Q9WTV7).
T2 sequence: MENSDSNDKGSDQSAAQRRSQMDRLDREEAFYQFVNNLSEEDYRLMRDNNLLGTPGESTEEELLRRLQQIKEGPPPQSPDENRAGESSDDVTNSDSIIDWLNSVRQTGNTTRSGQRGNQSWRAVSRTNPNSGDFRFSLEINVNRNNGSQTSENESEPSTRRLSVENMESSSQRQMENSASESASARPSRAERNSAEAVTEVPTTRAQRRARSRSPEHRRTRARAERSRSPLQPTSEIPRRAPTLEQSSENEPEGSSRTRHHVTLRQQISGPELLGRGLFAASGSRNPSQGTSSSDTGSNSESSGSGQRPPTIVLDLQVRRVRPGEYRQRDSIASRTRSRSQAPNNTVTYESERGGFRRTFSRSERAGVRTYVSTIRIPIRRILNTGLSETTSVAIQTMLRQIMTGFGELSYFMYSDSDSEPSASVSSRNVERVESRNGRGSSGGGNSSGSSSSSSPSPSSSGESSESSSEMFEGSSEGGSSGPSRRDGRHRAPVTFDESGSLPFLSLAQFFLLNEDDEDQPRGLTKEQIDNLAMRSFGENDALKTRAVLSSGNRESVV

For assay [3], the target named is T3, HA-tagged mouse RNF12 wild type (HA-mRNF12 WT, 1-600) (mouse) (UniProt Q9WTV7).
T3 sequence: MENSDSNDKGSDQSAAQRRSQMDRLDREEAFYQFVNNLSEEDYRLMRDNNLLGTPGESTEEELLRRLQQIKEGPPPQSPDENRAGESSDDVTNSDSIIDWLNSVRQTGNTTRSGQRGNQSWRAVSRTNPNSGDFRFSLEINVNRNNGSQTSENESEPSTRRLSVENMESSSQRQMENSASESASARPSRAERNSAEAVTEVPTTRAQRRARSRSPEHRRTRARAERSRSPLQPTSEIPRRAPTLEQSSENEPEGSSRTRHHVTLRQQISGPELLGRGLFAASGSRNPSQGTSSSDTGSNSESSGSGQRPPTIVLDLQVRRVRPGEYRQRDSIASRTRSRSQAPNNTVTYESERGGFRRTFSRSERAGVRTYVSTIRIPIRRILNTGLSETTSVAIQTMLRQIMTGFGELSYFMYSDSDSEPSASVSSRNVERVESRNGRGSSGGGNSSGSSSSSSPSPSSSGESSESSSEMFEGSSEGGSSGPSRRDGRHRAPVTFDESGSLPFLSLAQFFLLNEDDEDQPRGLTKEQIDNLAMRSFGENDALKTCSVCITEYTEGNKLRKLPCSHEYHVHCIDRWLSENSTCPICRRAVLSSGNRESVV

Assay [4] deals with T4, HA-mRNF12 Δ1-206 (ΔN) (mouse) (UniProt Q9WTV7).
T4 sequence: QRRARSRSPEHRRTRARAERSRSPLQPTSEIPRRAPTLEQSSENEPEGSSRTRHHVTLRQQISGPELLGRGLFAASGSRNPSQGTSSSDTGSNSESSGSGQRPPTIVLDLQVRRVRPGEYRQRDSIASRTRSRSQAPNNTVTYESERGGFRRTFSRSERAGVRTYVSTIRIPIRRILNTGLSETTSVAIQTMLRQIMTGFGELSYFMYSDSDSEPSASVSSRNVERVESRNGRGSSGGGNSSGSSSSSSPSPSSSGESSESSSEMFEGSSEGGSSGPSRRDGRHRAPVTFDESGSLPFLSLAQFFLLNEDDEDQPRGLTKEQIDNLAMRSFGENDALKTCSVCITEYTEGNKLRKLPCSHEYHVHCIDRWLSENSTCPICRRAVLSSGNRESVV

The target of assay [5] is T5, HA-mRNF12 Δ502-513 (ΔNES) (mouse) (UniProt Q9WTV7).
T5 sequence: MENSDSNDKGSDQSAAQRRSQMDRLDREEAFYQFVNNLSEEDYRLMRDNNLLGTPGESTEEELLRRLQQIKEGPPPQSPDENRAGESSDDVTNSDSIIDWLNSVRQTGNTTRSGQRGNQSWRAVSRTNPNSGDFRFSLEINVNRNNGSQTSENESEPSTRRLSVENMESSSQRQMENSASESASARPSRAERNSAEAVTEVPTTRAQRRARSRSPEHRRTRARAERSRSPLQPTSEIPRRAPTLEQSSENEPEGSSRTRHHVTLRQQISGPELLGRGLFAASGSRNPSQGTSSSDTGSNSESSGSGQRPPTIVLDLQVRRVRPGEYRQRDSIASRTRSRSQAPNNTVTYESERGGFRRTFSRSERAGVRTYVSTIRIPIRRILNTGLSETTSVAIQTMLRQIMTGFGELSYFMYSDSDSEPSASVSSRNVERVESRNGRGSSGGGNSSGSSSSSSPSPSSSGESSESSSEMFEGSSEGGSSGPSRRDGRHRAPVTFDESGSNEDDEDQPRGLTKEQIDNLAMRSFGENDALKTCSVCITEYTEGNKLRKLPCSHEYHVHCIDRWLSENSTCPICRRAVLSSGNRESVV

B1: FLAG-tagged human USP26 (FLAG-hUSP26) (enzyme, UniProt Q9BXU7 1-913)
chain: MAALFLRGFVQIGNCKTGISKSKEAFIEAVERKKKDRLVLYFKSGKYSTFRLSDNIQNVVLKSYRGNQNHLHLTLQNNNGLFIEGLSSTDAEQLKIFLDRVHQNEVQPPVRPGKGGSVFSSTTQKEINKTSFHKVDEKSSSKSFEIAKGSGTGVLQRMPLLTSKLTLTCGELSENQHKKRKRMLSSSSEMNEEFLKENNSVEYKKSKADCSRCVSYNREKQLKLKELEENKKLECESSCIMNATGNPYLDDIGLLQALTEKMVLVFLLQQGYSDGYTKWDKLKLFFELFPEKICHGLPNLGNTCYMNAVLQSLLSIPSFADDLLNQSFPWGKIPLNALTMCLARLLFFKDTYNIEIKEMLLLNLKKAISAAAEIFHGNAQNDAHEFLAHCLDQLKDNMEKLNTIWKPKSEFGEDNFPKQVFADDPDTSGFSCPVITNFELELLHSIACKACGQVILKTELNNYLSINLPQRIKAHPSSIQSTFDLFFGAEELEYKCAKCEHKTSVGVHSFSRLPRILIVHLKRYSLNEFCALKKNDQEVIISKYLKVSSHCNEGTRPPLPLSEDGEITDFQLLKVIRKMTSGNISVSWPATKESKDILAPHIGSDKESEQKKGQTVFKGASRRQQQKYLGKNSKPNELESVYSGDRAFIEKEPLAHLMTYLEDTSLCQFHKAGGKPASSPGTPLSKVDFQTVPENPKRKKYVKTSKFVAFDRIINPTKDLYEDKNIRIPERFQKVSEQTQQCDGMRICEQAPQQALPQSFPKPGTQGHTKNLLRPTKLNLQKSNRNSLLALGSNKNPRNKDILDKIKSKAKETKRNDDKGDHTYRLISVVSHLGKTLKSGHYICDAYDFEKQIWFTYDDMRVLGIQEAQMQEDRRCTGYIFFYMHNEIFEEMLKREENAQLNSKEVEETLQKE
Turning to B1, the binding result in assay [1] is “no binding”; in assay [2], “binds”; in assay [3], “binds”; in assay [4] it was “binds”; in assay [5] it was “binds”.
